Source: paper PMC4336329 (PLoS ONE, 2015)
In all, about 310,000 compounds went through this assay and about 2,200 (0.71%) showed an effect of 50% or more. Effects have a minus sign here. Some of the results follow.

The compounds below were run against human ether-à-go-go-related gene (hERG) potassium channel (human, UniProt Q12809) (assay: primary screen, population patch clamp on CHO cells stably expressing hERG).
Sequence of human ether-à-go-go-related gene (hERG) potassium channel (Q12809 whole entry, looked up): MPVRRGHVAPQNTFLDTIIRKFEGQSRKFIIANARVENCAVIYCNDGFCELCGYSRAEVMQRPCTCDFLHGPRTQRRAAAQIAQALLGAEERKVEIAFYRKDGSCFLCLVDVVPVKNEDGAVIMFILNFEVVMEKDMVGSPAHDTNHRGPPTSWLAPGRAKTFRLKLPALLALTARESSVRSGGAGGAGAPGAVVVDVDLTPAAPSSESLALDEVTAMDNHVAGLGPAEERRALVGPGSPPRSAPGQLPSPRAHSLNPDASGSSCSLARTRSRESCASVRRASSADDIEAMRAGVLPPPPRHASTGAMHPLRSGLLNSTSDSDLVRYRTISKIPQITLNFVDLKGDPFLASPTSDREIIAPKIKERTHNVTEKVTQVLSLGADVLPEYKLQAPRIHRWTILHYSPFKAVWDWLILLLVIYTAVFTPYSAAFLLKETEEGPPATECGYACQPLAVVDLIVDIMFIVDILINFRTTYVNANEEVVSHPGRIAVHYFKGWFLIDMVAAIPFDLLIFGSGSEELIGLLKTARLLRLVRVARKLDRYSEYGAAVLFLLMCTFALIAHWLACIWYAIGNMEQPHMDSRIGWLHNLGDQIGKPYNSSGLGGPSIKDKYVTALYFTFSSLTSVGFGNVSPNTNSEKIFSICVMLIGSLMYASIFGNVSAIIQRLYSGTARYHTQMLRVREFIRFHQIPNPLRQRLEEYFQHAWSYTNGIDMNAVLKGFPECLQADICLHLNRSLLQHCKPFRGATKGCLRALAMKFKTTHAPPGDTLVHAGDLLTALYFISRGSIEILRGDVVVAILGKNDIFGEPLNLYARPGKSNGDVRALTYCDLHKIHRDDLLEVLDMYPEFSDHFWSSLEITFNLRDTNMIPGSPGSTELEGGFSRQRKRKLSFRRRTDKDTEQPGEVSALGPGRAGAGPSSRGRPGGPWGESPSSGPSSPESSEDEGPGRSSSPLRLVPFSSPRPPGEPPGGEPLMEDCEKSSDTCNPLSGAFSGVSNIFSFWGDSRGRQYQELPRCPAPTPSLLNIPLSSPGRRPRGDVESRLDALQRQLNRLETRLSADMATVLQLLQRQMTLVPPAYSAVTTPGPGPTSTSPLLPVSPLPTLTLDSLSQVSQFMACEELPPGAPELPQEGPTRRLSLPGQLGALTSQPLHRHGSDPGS

Compound	hERG current change (%, negative = inhibition) at 1uM [%]
Cc1cc(SCC(=O)NC2(C#N)CCCCC2)nc2c(C)cccc12	8.51
CCCc1cc(C(=O)Nc2ccc(C(=O)c3ccc(C)cc3)cc2)n(C)n1	5.73
Cc1cccc(Sc2c([N+](=O)[O-])ncn2C)c1	18.2
Cc1nnc(NC(=O)c2ccncc2)s1	12.7
CCCn1c(SCC(=O)N2CCN(C(C)=O)CC2)nc2sc3c(c2c1=O)CCC3	-0.281
O=C(COC(=O)/C=C/c1cccc(F)c1)Nc1ncccn1	5.94
O=C(NC1CCCCC1)c1cc(S(=O)(=O)N2CCCCC2)ccc1N1CCOCC1	2.87
COC(=O)c1ccc2c(=O)sc(N3CCC(C(N)=O)CC3)nc2c1	6.13
CCNC(=O)C12CCC(C)(C(=O)C1Br)C2(C)C (stereo not drawn)	16.8
CCN(CC)C(=O)COc1ccc(/C(C)=N/Nc2ncc(Cl)cc2Cl)cc1	10.1
O=C(Cc1csc(N2CCOCC2)n1)N/N=C/c1ccccc1C(=O)O	17.3
O=C1CCCN1c1ccc(S(=O)(=O)Nc2ccc3c(c2)OCCO3)cc1	16.7
COc1ccc(CN2CC(=O)N3[C@H]4c5ccccc5OC[C@@H]4[C@H](c4ccccc4)[C@]3(C)C2=O)cc1	10.9
COCCN1C(=O)c2oc3cc(C)c(C)cc3c(=O)c2C1c1cccc(O)c1 (stereo not drawn)	16.6
COc1ccc(NC(=O)c2cc([N+](=O)[O-])ccc2NC(=O)CNC2CCCCC2C)c(OC)c1 (stereo not drawn)	-78.8
OCC(O)C1OC(Nc2ccc(Cl)cc2)C(O)C1O (stereo not drawn)	9.71
Cc1ccc(NC(=O)c2nc(C)n(-c3ccc([N+](=O)[O-])cc3)n2)cc1	-0.188
COc1ccc(C(=O)N2CCCC(c3ccccc3)=N2)cc1	6.92
C/C=C/c1ccc2c(c1)OCO2	15

Compound	hERG current change (%, negative = inhibition) at 1uM [%]
Cc1cccc(N2C(=O)CS/C2=N\NC(=O)c2ccc(Cl)cc2)c1C	8.56
Cc1ccc2c(c1)C(c1ccccc1)C(=O)O2 (stereo not drawn)	5.4
C(=C1/CCCC2=C1Nc1ncnn1C2c1ccccc1)/c1ccccc1 (stereo not drawn)	-0.632
COc1ccc(-n2c(O)c(/C=C3\C=Nc4ccc(Br)cc43)c(=O)[nH]c2=O)c(OC)c1	8.82
CS(=O)(=O)Nc1ccccc1C(=O)OCC(=O)NC1CC1	12.2
CCOC(=O)N(CC)c1ccc(C(O)(C(=O)OC)C(F)(F)F)cc1 (stereo not drawn)	6.8
COC(=O)c1ccc(NC(=O)C(=O)c2cccn2C)cc1	13.4
CC12CCC(=O)N1C(C(=O)Nc1nc3c(F)cc(F)cc3s1)CS2 (stereo not drawn)	2.27
COc1cc(C=C2C(=O)NC(=O)NC2=O)ccc1O	13.7
N#Cc1c(N(CCO)CCO)nc(N)c2c(N)nc3c(c12)CC(=O)N3Cc1cccs1	-5.23
CCC1(C)Cc2ccccc2-c2nc(NCCO)n(-c3ccccc3)c(=O)c21 (stereo not drawn)	6.09
CN(CC(=O)Nc1ccc(Cl)c(C(F)(F)F)c1)C(=O)CNC(=O)C1CCCCC1	6.12
CCCCC(=O)Nc1ccc(C(=O)Nc2cc(C(F)(F)F)ccc2Cl)cc1	15.9
COc1cccc(NC(=S)NNC(=O)Cn2nc(C(F)F)cc2C(F)F)c1	13
CCOC(=O)c1ccc(-n2c(CN3CCN(CC)CC3)nc3ccc([N+](=O)[O-])cc3c2=O)cc1	-1.41
CCCn1c(=O)c2[nH]c(-c3ccc(S(=O)(=O)O)cc3)nc2n(CCC)c1=O	8.92
O=C(CCN1CCOCC1)c1ccc(Cl)cc1	11.1
O=C(c1nc2ccccc2s1)N1CCN(c2ccccn2)CC1	3.19
CCOC(=O)c1c(N)sc2c1CCCC2	15.1

Compound	hERG current change (%, negative = inhibition) at 1uM [%]
O=C(NCc1ccccn1)C1CCN(S(=O)(=O)c2ccccc2F)CC1	7.3
CN(CC(=O)Nc1ccc(Cl)c(C(F)(F)F)c1)C(=O)CCCNC(=O)c1ccc(Cl)cc1	0.806
COCCNC(=O)Cc1c(C)c2c(cc(C)c3c(C)coc32)oc1=O	-11.9
O=c1cc(-c2ccc(O)c(O)c2)oc2cc(O)cc(O)c12	17.6
O=C(Nc1ccccc1C(=O)NC1CCCC1)NC1CCCC1	6.29
COc1ccc(OCCOc2cccc(C=C3C(=O)NC(=O)NC3=O)c2)cc1	14.8
Cc1ccc(-c2cc(C(=O)Nc3c(C)n(C)n(-c4ccccc4)c3=O)[nH]n2)c(O)c1C	0.312
Cc1ccc(S(=O)(=O)Nc2nc(N)n(-c3ccccc3)n2)cc1	15.5
Cn1nc(C(=O)NC2CCCC2)c2ccccc2c1=O	18.7
COC(=O)Cc1ccc(NC(=S)NCc2ccccc2OC)cc1	20.5
COc1cc(/C=N/NC(=O)Cn2cnc3c2c(=O)n(C)c(=O)n3C)ccc1O	18
Cc1nc2ccccc2c2nc(NC(=O)Cc3ccccc3)nn12	-1.54
CCOC(=O)CCCNC(=O)CSc1nnc(-c2ccccc2)c(-c2ccccc2)n1	-3.06
CCc1cc(C(=O)c2ccc(OC)cc2)c(NC(=O)CN2CCCCC2)s1	7.6
COc1cccc(/C=C2\NC(=O)NC2=O)c1O	16.9
COc1ccc(-c2csc(Nc3ccc(S(=O)(=O)Nc4cc(C)on4)cc3)n2)cc1	0.675
CC(C)c1c(O)c2c(n(-c3ccccc3)c1=O)CCCC2	10.6
COc1ccc(C(=O)NC2CCCN(Cc3ccccc3F)C2)c(OC)c1OC (stereo not drawn)	4.49
Cc1c(CN(C)C(=O)CSc2nc(-c3ccco3)cc(C(F)(F)F)n2)cnn1C	12.4
